# Measured values: PubChem BioAssay AID662 (National Center for Advancing Translational Sciences (NCATS), 2007)
# Out of some 71,000 compounds screened, about 1,800 (2.5%) were called active. This list was built around the results that the source calls inconclusive (neither active nor inactive); the mix of calls is not that of the screen. Calls follow the shape of the dose curve; as a rule, active = well fitted activation curve with a large enough effect in the signal ratio, with a control signal flat (not every such curve was filed as active); inconclusive = small, poorly fitted or top-dose-only effect, or effect the other way, or a change in a side signal; inactive = flat fitted curve, though single readings scatter; the % refers to the signal ratio. Where the call is inconclusive, the potency comes from a doubtful curve fit.
# Experiment: Cell signaling CRE-BLA (Fsk stim); as to activity change, negative = inhibition: % of control where 0% means no effect
# Conditions: CHO CRE-bla reporter (cAMP response element driving beta-lactamase), forskolin EC10, beta-lactamase ratio; activity change, negative = inhibition: at 38.2 µM (top of the series) unless noted
# Procedure, shortened: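 Beta-lactamase reporter under a cAMP responsive element in CHO cells; compounds tested in titration series against EC10 NKH 477, 3 h at 37 °C. Read-out: CCF4 FRET ratio 460nm/530nm (excitation 405nm) giving %Activity, fitted to AC50.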
# Potency is read from the fitted curve at half-maximal effect; tags tell the direction and shape of the fitted curve.
SMILES,Potency,"activity change, negative = inhibition"
C=CCNC(=O)CCCC(=O)NCC=C,"inconclusive: 0.0398 µM [rising, full curve, poor fit]",
O=C(c1ccncc1)N1CCC2(CC1)CN(c1ccccn1)C2,,inactive
Cc1cccc(CNC(=O)c2ccccc2N)c1,,inactive
CCCCn1c(SCC(=O)Nc2nnc(C)s2)nnc1-c1ccoc1C,,inconclusive: 34.6%
CCOC(=O)c1ccc(-n2c(C)nc3ccccc3c2=O)cc1,,inactive
CCOc1ccc2c(c1)sc1nc(C(=O)OC)cc(=O)n12,"inconclusive: 5.01 µM [rising, single point]",
COc1cc(-c2nnc(COc3ccc4ccccc4c3)o2)cc(OC)c1OC,active: 0.126 µM,
Cc1ccc(-n2[nH]c(C)c(C=Nc3ccc(C)cn3)c2=O)cc1,,inactive
COc1ccc2nccc(SCC(=O)O)c2c1,,inactive: -2.32% [at 7.6 µM]
COCCn1c(=O)c(-c2ccc(OC)cc2)nc2cnc(OCc3ccccc3)nc21,,inconclusive: 7.46%
O=C1c2cccc(O)c2C(=O)c2c(O)cccc21,"inconclusive: 10 µM [rising, full curve, poor fit]",
Cc1cccc(C)c1NC(=O)N1CCC(c2nc3ccccc3o2)CC1,,inactive
CC(=O)c1ccc(CCCC(=O)O)cc1,"inconclusive: 5.01 µM [falling, single point]",
COCCNC(=O)C(c1ccc(C)o1)N(C(=O)c1snc(C(N)=O)c1N)c1cccc(C)c1 (stereo not drawn),,inactive
CC1CCN(c2nc3ccccc3nc2C(C#N)C(=O)NC2CCCCC2)CC1 (stereo not drawn),"inconclusive: 15.8 µM [rising, partial curve]",
O=C1c2c(O)cc(O)cc2O[C@@H](c2ccc(O)c(O)c2)[C@H]1O,,inactive
COc1ccc(OC)c(NC(=O)Cc2coc3ccc(C)cc23)c1,"inconclusive: 0.0501 µM [rising, full curve, poor fit]",
O=C(Cc1ccc(Cl)cc1)Nc1ccc(-c2nnc(-c3ccco3)o2)cc1,,inconclusive: 5.86% [cytotoxic]
Cc1ccc(S(=O)(=O)C2(C(=O)Nc3cccnc3)CC2)cc1,,inactive
O=C(O)c1cccc(Cn2cccn2)c1,"inconclusive: 3.98 µM [rising, single point]",
CC1Cc2cc(C3(O)C(=O)c4ccccc4C3=O)ccc2N1 (stereo not drawn),,inconclusive: -26.1%
NNC(=O)Cc1cccnc1,,inactive: -3.78% [at 7.6 µM]
CCOC(=O)C1CCN(c2c(NCCCN3CCN(Cc4ccccc4)CC3)c(=O)c2=O)CC1,,inconclusive: 9.2%
CCc1nc2c(cnn2-c2ccc(Cl)cc2)c(=O)n1-c1ccc(OC)cc1,"inconclusive: 2 µM [rising, partial curve]",
Cc1ccc(-c2cc(C(=O)Nc3cccnc3)c3ccccc3n2)o1,,inactive
Cc1cccc(-c2c3c(=O)n(C)c(=O)n(C)c3c3cccnn23)c1,"inconclusive: 2.51 µM [rising, full curve, poor fit]",
COc1ccc(C(=O)Nc2ccc(-c3cn4ccsc4n3)cc2)cc1S(=O)(=O)N1CCOCC1,active: 2 µM,

SMILES,Potency,"activity change, negative = inhibition"
COCC(=O)Nc1c(C(=O)Nc2ccccc2OC)oc2ccccc12,,inactive
CCOC(=O)CSc1nnc(CNC(=O)c2ccco2)n1C,,inconclusive: 12.3%
CCN(CC)C(=O)CN(C)S(=O)(=O)c1cccc2nsnc12,,inconclusive: -5.83%
CCn1c(SCC(=O)Nc2nc(-c3ccc(C)cc3)cs2)nnc1-c1ccccc1O,,inconclusive: -17.2%
CCC(CO)NC(=O)c1cccc(S(=O)(=O)N2c3ccccc3CC2C)c1 (stereo not drawn),"inconclusive: 0.501 µM [falling, partial curve, poor fit]",
CCCN(CCC)c1ncnc2c1cnn2-c1ccc(OC)cc1,"inconclusive: 12.6 µM [rising, partial curve]",
CCC(C)NC(=O)C1CCC(=O)N1Cc1ccc(C)cc1 (stereo not drawn),,inconclusive: 7.62%
N[C@H](Cc1cccc(-c2ccccc2CP(=O)(O)O)c1)C(=O)O,,inactive
CCCN1Cc2cccc(C(=O)Nc3ccc4c(c3)OCCO4)c2C1=O,active: 12.6 µM,
COC(=O)c1ccc(C(NC(=O)OCc2ccccc2)/C(=C/[C@@H](C)C(=O)NCc2ccc(S(C)(=O)=O)cc2)c2cccnc2)cc1 (stereo partly drawn),,inactive
O=C(Nc1ncc2c(n1)CC(c1ccccc1)CC2=O)c1ccco1 (stereo not drawn),,inactive
O=c1cc(N2CCOCC2)oc2c(-c3ccccc3)cccc12,"inconclusive: 6.31 µM [rising, partial curve]",
CC(C)OCCCNC(=O)c1c(N)n(/N=C/c2ccccn2)c2nc3ccccc3nc12,active: 2.51 µM,
CCOC(=O)c1cnc(SCC(=O)c2ccccc2)nc1N,,inconclusive: 24.2%
Cc1ccc2cc3c(N)c(C(=O)N4CCOCC4)sc3nc2c1,"inconclusive: 10 µM [rising, partial curve]",
COc1ccc2[nH]c3c(=O)n(CCCCC(=O)N4CCCC4)c(=S)[nH]c3c2c1,,inactive
CCCCn1c(NC(=O)CC)c(C#N)c2nc3ccccc3nc21,"inconclusive: 10 µM [rising, partial curve]",
O=Nc1ccc(Nc2ccccc2)cc1,"inconclusive: 1.26 µM [falling, full curve]",
CCCCNC(=O)c1cc2c(=O)n3cccc(C)c3nc2n1C,"inconclusive: 3.98 µM [rising, partial curve]",
CCc1cc2c(=O)n(Cc3ccco3)c(SCC(=O)N3CCCc4ccccc43)nc2s1,,inconclusive: 22.9%
CCCCN=C(C)c1c(O)c2ccccc2oc1=O,"inconclusive: 15.8 µM [rising, single point]",
Cc1noc(C)c1C(=O)N1CCC2(CCCN(c3ccncc3)C2)CC1,,inactive
Cc1c(NC(=O)c2ccc(Br)o2)c(=O)n(-c2ccccc2)n1C,,inconclusive: -2.87% [at 7.6 µM]
Cn1nc(C(=O)NCc2ccccc2)c2ccccc2c1=O,"inconclusive: 12.6 µM [rising, partial curve]",
O=C(O)CCn1c(C(=O)O)cc2sccc21,,inconclusive: -1.01%
Cc1ccc(NC(=O)CSC2=C(C#N)C(c3ccco3)C3=C(CC(C)(C)CC3=O)N2)cc1 (stereo not drawn),,inconclusive: 17.9%
